Laboratory results: the supplement of paper PMC3334620
Whole data set: some 33,000 sequences, median “E-score (-0.5 to 0.5)” near -0.036, cut for the highest 2% near 0.37. The list shows a part of the results.

Target: T1, Yer064c (UniProt P40041)
T1 sequence: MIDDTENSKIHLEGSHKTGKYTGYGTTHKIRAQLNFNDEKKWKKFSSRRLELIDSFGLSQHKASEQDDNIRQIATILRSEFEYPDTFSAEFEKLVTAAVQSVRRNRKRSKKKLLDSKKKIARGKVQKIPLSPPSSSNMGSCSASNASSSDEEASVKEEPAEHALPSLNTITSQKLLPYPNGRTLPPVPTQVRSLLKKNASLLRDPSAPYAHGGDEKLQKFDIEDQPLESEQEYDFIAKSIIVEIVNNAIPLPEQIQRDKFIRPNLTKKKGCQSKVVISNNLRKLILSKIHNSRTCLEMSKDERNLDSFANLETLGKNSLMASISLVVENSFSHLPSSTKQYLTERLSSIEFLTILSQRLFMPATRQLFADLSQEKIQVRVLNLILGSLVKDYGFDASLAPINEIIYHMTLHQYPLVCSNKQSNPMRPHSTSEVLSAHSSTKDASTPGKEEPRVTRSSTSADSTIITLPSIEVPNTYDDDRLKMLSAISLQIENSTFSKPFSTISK
Assay: PBM E-score (8-mer binding enrichment) (E-score (-0.5 to 0.5)); higher = stronger / more preferred TF binding; most listed sequences are background and not binding sites
Settings: protein concentration: 200 nM; construct: GST-full length
Summary of the method: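 Detection of bound protein used fluorescent anti-GST, with scans normalised by masliner. The proteins were GST-tagged yeast transcription factors applied at about 100-200 nM to universal all-10-mer Agilent arrays made double-stranded by primer extension. Each ungapped eight-base word, pooled with its reverse complement, was scored with an E-score from the Universal PBM Analysis Suite.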

Sequence	PBM E-score
AAAATAGA	0.0233
ATTCAGTC	0.341
CGATCCCC	-0.197
AGCGGCCA	-0.259
GATGCTAC	-0.135
CCCGTGCC	-0.103
GAGACTCC	0.367
CAAAAGTG	-0.0977
CGCTGTCC	-0.243
AGGAGAGA	0.0683
GTCAAGTA	0.08
CGAAAGTC	0.23
GTCCACTA	-0.0875
AGTAAAAG	0.0408
AAAGAGTG	-0.0396
CACTGCGC	-0.151
AACCCAGG	-0.219
ATTGCGAA	0.00471
AGTCGGTA	-0.0166
ACTCTACC	0.115
ATCATGCC	0.232
TGGAAGAA	-0.0375
GGTGGTAA	0.0401
ATAATTAG	0.0798
TCCCATCA	-0.07

Sequence	PBM E-score
AAAGCGTC	-0.224
ACCATGTG	0.116
GTACAAAC	0.025
GCGTGGAA	-0.238
TATGGTAA	0.0478
GGCATGTA	-0.145
CATCCACC	-0.0348
GTAAGAAA	-0.0634
CCAGACCG	-0.301
AGCATTGG	0.0859
AGCCTCGC	-0.342
AACGAGTC	0.42
ATTAGTGA	0.219
CATAACCA	0.071
AGCCCGGC	-0.226
AAAGTACT	0.101
CCCACAGC	-0.138
GCGGAATA	-0.216
GCATGAAC	0.0609
CGGCGTTC	-0.284
CCTAGTAG	0.00521
ATTGATAA	0.0604
CCCGACGA	-0.143
CCTGGTAA	-0.137
ACCATCGT	0.0188

Sequence	PBM E-score
CAGATGGG	-0.0325
GTCCCGGA	0.0484
CAAGACGG	-0.147
ACCGAATA	-0.0568
AGCACAAA	0.15
GAGTTTTA	0.101
CACCATGC	-0.198
CCCCTTAA	-0.245
TCTCGGCA	-0.152
ACACATAA	0.15
GCACGCAC	-0.161
AACGGGAG	0.0677
TCACGCGA	0.0699
TAGACGGA	0.12
AAGCTGCT	0.0595
GAGCTTTA	-0.0198
GCGGGACC	-0.276
ACCTCACT	0.0302
CCTCGAGA	0.0673
ACACGTAG	-0.014
GTGGCTTA	-0.213
CGGTAGGC	-0.178
CGCAGTCC	0.134
GAGGCTTA	-0.197
CTTCCAAC	-0.235

Sequence	PBM E-score
CGTAGCAA	-0.0716
AGTGTACA	-0.133
AGGGGAGA	-0.0295
TTTTAAAA	0.152
CCCCCCTC	-0.416
TATAGTAA	0.0693
TAGTACGA	0.0633
AAGCGCAT	-0.114
CGAGTCGC	0.383
GACAACAC	-0.161
ACCAATTA	-0.0587
ACACTACA	0.0888
TCCCGCAA	-0.16
CGTGACGA	0.0595
GATCACGC	0.18
ACGGAGGC	-0.34
GGAGTTGA	0.0454
CCAGTAGG	-0.246
CTCCTAGC	-0.122
ACGAATAG	-0.0529
TATTACCA	0.0455
ACTCTCCG	0.193
ACCCACTG	-0.0391
CAGTACCC	-0.0153
GGCGTTCA	-0.296

Sequence	PBM E-score
ACCTAAAA	-0.0104
CGCATACA	-0.0361
TATACAGA	0.0513
GCGGTAGA	-0.06
ACTCTTAT	0.241
CATCGCAC	-0.211
CGCGTCTC	-0.0783
TCAGGACA	0.172
GACCGTTA	-0.0525
TGCTCACA	-0.157
AGTGTTTC	-0.0769
AGTTGAAC	-0.0262
ATACTCGG	-0.0364
AAGAATAC	-0.059
ACGAGGCG	-0.156
GACAATTA	0.116
CGGAGTAG	-0.0167
CCGAGGAG	-0.135
AGATAGCT	-0.158
ACGAACAA	0.0997
AATTAGGG	-0.145
ACTGTGTC	0.184
CGGGGACG	0.0815
GAAGAATA	0.0388
CACGCACA	-0.0101

Sequence	PBM E-score
GCCACACA	-0.0274
AGTGTAAC	-0.0983
ACAATCAC	0.351
AGGGAGCC	-0.304
CAATGGTA	-0.0289
CTGGCTAA	0.23
GCAGGCGC	-0.191
GCGCACGC	-0.252
ATTCGAAC	0.082
GACTCTGA	0.392
GTCGGGGA	-0.0863
ACTTACGC	0.0287
CGCCCCCG	-0.243
TGGATGAA	-0.0193
AAGGCCCC	-0.37
ACCAACCG	-0.0719
GCGAGGCC	-0.223
GACCAGAA	-0.121
GGGCCTTA	-0.297
ACGAATAA	0.0659
GCCGGGCC	-0.227
AGCCCCCA	-0.337
TCCTTGCA	-0.219
AGGTCTCG	-0.024
GTTTCGAA	0.00031

Sequence	PBM E-score
GCAGAACA	-0.227
GTACGAAC	0.127
AAATGATT	0.437
AGATATCC	0.192
ATGTCAGA	-0.0808
AGCGAACA	-0.0556
ACGATCGC	-0.0227
TCCGTGAA	-0.0302
CTACTGGA	-0.00141
ACCCCCTA	-0.029
GTAAAGGA	0.0918
CACTTGAG	0.242
AGGGACAA	-0.21
TAAGAGCA	-0.071
ATGAGTGG	0.193
CCAAGGCC	-0.213
GCTTAGAC	-0.0998
GCGAATCA	0.414
CCCCTGGA	-0.176
ACGCGCAT	-0.0858
CAATAAAG	0.146
CACGAACA	0.163
